Measured values reported in the supplement of paper PMC4604168 (melanoma cell lines).
This is one part of the list. Most values come without repeats; read them as rough.

Key:
Test in all cases: cell count relative to DMSO control; melanoma cells; higher = more viable cells
Conditions in all cases: library dose: standard library concentration; 72 h
G361 = tested on: G361
IPC-298 = tested on: IPC-298
IST-MEL1 = tested on: IST-MEL1
LB2518-MEL = tested on: LB2518-MEL
LOXIMVI = tested on: LOXIMVI
MEL-HO = tested on: MEL-HO
MZ2-MEL = tested on: MZ2-MEL
MeWo = tested on: MeWo
RPMI7951 = tested on: RPMI7951
RVH-421 = tested on: RVH-421
SkMel28 = tested on: SkMel28
SkMel2 = tested on: SkMel2
SkMel30 = tested on: SkMel30
SkMel5 = tested on: SkMel5
UACC257 = tested on: UACC257
UACC62 = tested on: UACC62
WM115 = tested on: WM115
WM1716 = tested on: WM1716
WM1745 = tested on: WM1745
WM3526 = tested on: WM3526
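Note: cells treated in 1,536-well plates, then fixed and DAPI-stained, with nuclei counted from automated high-throughput microscope images.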

Row | Compound | cell count (G361) | cell count (IPC-298) | cell count (IST-MEL1) | cell count (LB2518-MEL) | cell count (LOXIMVI) | cell count (MEL-HO) | cell count (MZ2-MEL) | cell count (MeWo) | cell count (RPMI7951) | cell count (RVH-421) | cell count (SkMel28) | cell count (SkMel2) | cell count (SkMel30) | cell count (SkMel5) | cell count (UACC257) | cell count (UACC62) | cell count (WM115) | cell count (WM1716) | cell count (WM1745) | cell count (WM3526)
1 | O=C(/C=C/c1cccnc1)NCCCCC1CCN(C(=O)c2ccccc2)CC1 + C[C@]12O[C@H](C[C@]1(O)CO)n1c3ccccc3c3c4c(c5c6ccccc6n2c5c31)CNC4=O [Lestaurtinib] (first compound 0.05 µM, partner dose 0.02 µM) | 2.78% | 26.8% | 79% | 60.2% | 90.3% | 41.4% | 39% | 82.3% | 120% | 41.4% | 56.6% | 11.8% | 71% | 60.8% | 90.4% | 76.2% | 93.8% | 71.2% | 74.1% | 62.3%
2 | O=C(Nc1cc(C(F)(F)F)cc(C(F)(F)F)c1)c1cc(Cl)ccc1O + O=C(Oc1ccc([N+](=O)[O-])cc1)N1CCC(C(O)(c2ccc3c(c2)OCO3)c2ccc3c(c2)OCO3)CC1 [JZL184] (first compound 0.08 µM, partner dose 5 µM) | 93.1% | 99.5% | 97.5% | 123% | 107% | 101% | 94.4% | 83.2% | 92.2% | 105% | 82.4% | 83.9% | 88.4% | 76.5% | 83.9% | 65.4% | 93.1% | 86.4% |  | 80.6%
3 | Cc1ccc(Nc2nccc(N(C)c3ccc4c(C)n(C)nc4c3)n2)cc1S(N)(=O)=O [Pazopanib] + C/C(O)=C(\C#N)C(=O)Nc1cc(Br)ccc1Br [LFM-A13] (first compound 2 µM, partner dose 10 µM) | 97.8% | 92.7% | 100% | 102% | 90.4% | 104% | 93.4% | 77.6% | 74.8% | 112% | 85.3% | 104% | 105% | 62.6% | 88.1% | 57.9% | 98.6% | 74.9% |  | 86.6%
4 | O=C(/C=C/c1cccnc1)NCCCCC1CCN(C(=O)c2ccccc2)CC1 + O=C(Oc1ccc([N+](=O)[O-])cc1)N1CCC(C(O)(c2ccc3c(c2)OCO3)c2ccc3c(c2)OCO3)CC1 [JZL184] (first compound 0.05 µM, partner dose 5 µM) | 3.33% | 31.6% | 66.6% | 71.8% | 49.4% | 40.2% | 30.1% | 90.6% | 105% | 36.3% | 91.7% | 31.1% | 109% | 90.6% | 92.4% | 92.6% | 69.1% | 79.4% |  | 87.7%
5 | CCN(CC)CCNC(=O)c1c(C)[nH]c(/C=C2\C(=O)Nc3ccc(F)cc32)c1C [sunitinib] + O=C(Oc1ccc([N+](=O)[O-])cc1)N1CCC(C(O)(c2ccc3c(c2)OCO3)c2ccc3c(c2)OCO3)CC1 [JZL184] (first compound 2 µM, partner dose 5 µM) | 83.7% | 88.6% | 88.4% | 66.8% | 229% | 87.4% | 102% | 61.2% | 57.5% | 121% | 72.7% | 85.7% | 59.1% | 52.3% | 113% | 39% | 64.8% | 75.9% |  | 54.9%
6 | C[C@@H](Oc1cc(-c2cnn(C3CCNCC3)c2)cnc1N)c1c(Cl)ccc(F)c1Cl [Crizotinib] + C/C(O)=C(\C#N)C(=O)Nc1cc(Br)ccc1Br [LFM-A13] (first compound 1 µM, partner dose 10 µM) | 108% | 102% | 98.5% | 84% | 82.5% | 101% | 105% | 71.3% | 82.4% | 104% | 63.9% | 109% | 85.4% | 72% | 87.3% | 80.4% | 60% | 77.8% |  | 96.7%
7 | C[C@@H](Oc1cc(-c2cnn(C3CCNCC3)c2)cnc1N)c1c(Cl)ccc(F)c1Cl [Crizotinib] + Cc1cc(SCc2sc(-c3ccc(C(F)(F)F)c(F)c3)nc2C)ccc1OCC(=O)O [GW0742] (first compound 1 µM, partner dose 10 µM) | 92.5% | 90.8% | 88.3% | 76.8% | 86.7% | 91.1% | 92.5% | 81.6% | 73.3% | 82% | 44.9% | 81.5% | 76.2% | 69.1% | 89.1% | 67.7% | 75.4% | 80% |  | 68.4%
8 | CS(=O)(=O)CCNCc1ccc(-c2ccc3ncnc(Nc4ccc(OCc5cccc(F)c5)c(Cl)c4)c3c2)o1 [lapatinib] + C/C(O)=C(\C#N)C(=O)Nc1cc(Br)ccc1Br [LFM-A13] (first compound 4 µM, partner dose 10 µM) | 63.4% | 80.1% | 88.3% | 98.9% | 101% | 81.2% | 76% | 65% | 64.9% | 86% | 70.1% | 79.4% | 85.7% | 64.8% | 101% | 59% | 91.9% | 80.8% |  | 69.3%
9 | O=c1[nH]nc(Sc2ncc([N+](=O)[O-])s2)n1-c1ccc2c(c1)OCCO2 + O=C(Oc1ccc([N+](=O)[O-])cc1)N1CCC(C(O)(c2ccc3c(c2)OCO3)c2ccc3c(c2)OCO3)CC1 [JZL184] (first compound 1 µM, partner dose 5 µM) | 109% | 91.1% | 98.8% | 101% | 102% | 103% | 100% | 94.4% | 84% | 94.2% | 71% | 94.1% | 98.4% | 64.1% | 87.7% | 71.9% | 89.8% | 78.7% |  | 81.2%
10 | COc1ccc(C2=N[C@@H](c3ccc(Cl)cc3)[C@@H](c3ccc(Cl)cc3)N2C(=O)N2CCNC(=O)C2)c(OC(C)C)c1 [Nutlin-3] + Cc1cc(SCc2sc(-c3ccc(C(F)(F)F)c(F)c3)nc2C)ccc1OCC(=O)O [GW0742] (first compound 0.5 µM, partner dose 10 µM) | 65.4% | 97.2% | 86.7% | 59% | 78.7% | 93.7% | 109% | 77.6% | 74.8% | 50.3% | 58.1% | 81.4% | 92.9% | 70% | 72.2% | 76.3% | 99.7% | 68.7% |  | 76.9%
11 | CN(c1ncccc1CNc1nc(Nc2ccc3c(c2)CC(=O)N3)ncc1C(F)(F)F)S(C)(=O)=O + C/C(O)=C(\C#N)C(=O)Nc1cc(Br)ccc1Br [LFM-A13] (first compound 0.4 µM, partner dose 10 µM) | 76.5% | 86.3% | 82.3% | 86.8% | 60.8% | 74.2% | 83.6% | 81.8% | 54.6% | 73.5% | 65.9% | 73.1% | 103% | 54.5% | 82.3% | 76.3% | 81.4% | 83.7% |  | 83.5%
12 | Cc1cc(Nc2cc(N3CCN(C)CC3)nc(/C=C/c3ccccc3)n2)n[nH]1 + Cc1cc(SCc2sc(-c3ccc(C(F)(F)F)c(F)c3)nc2C)ccc1OCC(=O)O [GW0742] (first compound 0.2 µM, partner dose 10 µM) | 101% | 115% | 99.7% | 91.2% | 103% | 107% | 105% | 87.9% | 103% | 94.3% | 74.8% | 102% | 109% | 72.4% | 102% | 73.3% | 97.8% | 74.3% |  | 101%
13 | CCCCCCCCCCCCCCCCCCOP(=O)([O-])OC1CC[N+](C)(C)CC1 [Perifosine] + O=C(Oc1ccc([N+](=O)[O-])cc1)N1CCC(C(O)(c2ccc3c(c2)OCO3)c2ccc3c(c2)OCO3)CC1 [JZL184] (first compound 2 µM, partner dose 5 µM) | 110% | 121% | 93.7% | 156% | 110% | 109% | 113% | 100% | 31.5% | 109% | 117% | 93.9% | 93% | 115% | 121% | 103% | 100% | 88.1% |  | 74.6%
14 | C[C@@H](Oc1cc(-c2cnn(C3CCNCC3)c2)cnc1N)c1c(Cl)ccc(F)c1Cl [Crizotinib] + O=C(Oc1ccc([N+](=O)[O-])cc1)N1CCC(C(O)(c2ccc3c(c2)OCO3)c2ccc3c(c2)OCO3)CC1 [JZL184] (first compound 1 µM, partner dose 5 µM) | 105% | 109% | 97.7% | 82% | 125% | 97.6% | 98.7% | 75.5% | 75.8% | 84.6% | 74.8% | 87% | 122% | 83.6% | 77% | 70.5% | 64.1% | 76.1% |  | 87.7%
15 | Nc1nc(F)nc2c1ncn2[C@@H]1O[C@H](CO)[C@@H](O)[C@@H]1O [fludarabine] + Cc1cc(SCc2sc(-c3ccc(C(F)(F)F)c(F)c3)nc2C)ccc1OCC(=O)O [GW0742] (first compound 1 µM, partner dose 10 µM) | 79% | 76.9% | 56.5% | 86.2% | 115% | 72.6% | 102% | 76.7% | 72.7% | 88.5% | 5.6% | 2.07% | 22.7% | 26% | 28.1% | 83.9% | 104% | 84.9% |  | 25.1%
16 | Cn1cnc2c(F)c(Nc3ccc(Br)cc3Cl)c(C(=O)NOCCO)cc21 [selumetinib] + C/C(O)=C(\C#N)C(=O)Nc1cc(Br)ccc1Br [LFM-A13] (first compound 0.075 µM, partner dose 10 µM) | 69% | 58.3% | 85.3% | 54.6% | 96.2% | 79.2% | 87.5% | 83.2% | 106% | 79.9% | 44.8% | 61.6% | 67.1% | 75.4% | 100% | 48.9% | 86.8% | 80.2% |  | 52.7%
17 | CCCCCCCCCCCCCCCCCCOP(=O)([O-])OC1CC[N+](C)(C)CC1 [Perifosine] + Cc1cc(SCc2sc(-c3ccc(C(F)(F)F)c(F)c3)nc2C)ccc1OCC(=O)O [GW0742] (first compound 2 µM, partner dose 10 µM) | 99.3% | 97.3% | 88.2% | 98.7% | 80.6% | 90.6% | 110% | 64.5% | 27.3% | 90.3% | 67.5% | 96.2% | 85.2% | 93.4% | 111% | 91.6% | 113% | 94.9% |  | 89.1%
18 | C=C(c1ccc(C(=O)O)cc1)c1cc2c(cc1C)C(C)(C)CCC2(C)C [Bexarotene] + Cc1cc(SCc2sc(-c3ccc(C(F)(F)F)c(F)c3)nc2C)ccc1OCC(=O)O [GW0742] (first compound 10 µM, partner dose 10 µM) | 85.6% | 82.2% | 86.1% | 124% | 108% | 81.6% | 104% | 73.1% | 92.7% | 78.4% | 72.5% | 85.3% | 114% | 105% | 93.1% | 69.5% | 116% | 90.2% |  | 92.6%
19 | Cn1c(=O)n(-c2ccc(C(C)(C)C#N)cc2)c2c3cc(-c4cnc5ccccc5c4)ccc3ncc21 + Cc1cc(SCc2sc(-c3ccc(C(F)(F)F)c(F)c3)nc2C)ccc1OCC(=O)O [GW0742] (first compound 0.02 µM, partner dose 10 µM) | 88% | 95.9% | 89% | 100% | 117% | 81.3% | 96.8% | 77.8% | 96.6% | 82.5% | 79.8% | 83.8% | 96.8% | 109% | 91.6% | 93.4% | 77.9% | 91.8% |  | 106%
